Legend:
[1] = target: T1, 人CD137全长 (SEQ ID No.19)，表达于细胞 (human, UniProt Q07011 24-255); assay: flow cytometry (FACS) on CHO-K1/hCD137 cells, goat anti-human FITC; antibody at 9.259259259 nM
T1 construct: The full-length entry was transfected into CHO-K1 cells for FACS and into HEK293 cells for the reporter assay; also called CHO-K1/hCD137; 细胞表面人CD137

[2] = target: T1, 人CD137全长 (SEQ ID No.19)，表达于细胞; assay: flow cytometry (FACS) on CHO-K1/hCD137 cells, goat anti-human FITC; antibody at 3.086419753 nM
T1 sequence (Q07011 24-255 limits assumed): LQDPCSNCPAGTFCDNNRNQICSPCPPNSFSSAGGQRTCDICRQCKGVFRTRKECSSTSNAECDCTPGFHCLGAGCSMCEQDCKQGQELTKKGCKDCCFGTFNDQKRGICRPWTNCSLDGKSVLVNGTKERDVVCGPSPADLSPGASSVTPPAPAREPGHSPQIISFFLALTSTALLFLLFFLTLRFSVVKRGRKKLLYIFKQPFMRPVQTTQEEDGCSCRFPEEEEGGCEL

[3] = target: T1, 人CD137全长 (SEQ ID No.19)，表达于细胞; assay: flow cytometry (FACS) on CHO-K1/hCD137 cells, goat anti-human FITC; antibody at 27.77777778 nM
[4] = target: T1, 人CD137全长 (SEQ ID No.19)，表达于细胞; assay: flow cytometry (FACS) on CHO-K1/hCD137 cells, goat anti-human FITC; 4-parameter logistic fit
[5] = target: T1, 人CD137全长 (SEQ ID No.19)，表达于细胞; assay: flow cytometry (FACS) on CHO-K1/hCD137 cells, goat anti-human FITC; antibody at 0.342935528 nM
[6] = target: T1, 人CD137全长 (SEQ ID No.19)，表达于细胞; assay: flow cytometry (FACS) on CHO-K1/hCD137 cells, goat anti-human FITC; antibody at 1.028806584 nM
[7] = target: T1, 人CD137全长 (SEQ ID No.19)，表达于细胞; assay: flow cytometry (FACS) on CHO-K1/hCD137 cells, goat anti-human FITC; antibody at 250 nM
[8] = target: T2, 人PD-L1胞外段 (SEQ ID No.22 第19-238位) (human, UniProt Q9NZQ7 part only); assay: ELISA, human PD-L1 extracellular domain coated, goat anti-human HRP
T2 construct: also called 人PD-L1抗原

[9] = target: T3, 人PD-L1全长 (SEQ ID No.22)，表达于CHO-K1细胞 (human, UniProt Q9NZQ7); assay: flow cytometry (FACS) on CHO-K1/hPD-L1 cells, goat anti-human FITC
T3 construct: The full-length entry was transfected; also called CHO-K1/hPD-L1; 细胞表面人PD-L1

[10] = target: T4, 人PD-L1胞外段 (SEQ ID No.22 第19-238位)，带His标签 (human, UniProt Q9NZQ7 part only); assay: bridging ELISA: human PD-L1-His coated, bispecific antibody, then human CD137-mouse Fc, goat anti-mouse HRP
T4 construct: It may be the same preparation as m7; not shown: His tag

[11] = target: T1, 人CD137全长 (SEQ ID No.19)，表达于细胞; assay: flow cytometry (FACS) on CHO-K1/hCD137 cells, goat anti-human FITC; antibody at 83.33333333 nM

FACS signal (read-out name not given) [1]: 6790 | FACS signal (read-out name not given) [2]: 3720 | FACS signal (read-out name not given) [3]: 11100 | EC50 [4]: 14.6 nM | FACS signal (read-out name not given) [5]: 2660 | FACS signal (read-out name not given) [6]: 2960 | FACS signal (read-out name not given) [7]: 14200 | binding result [8]: binds | binding result [9]: binds | binding result [10]: binds | FACS signal (read-out name not given) [11]: 14000
B1: 抗人PD-L1/CD137双特异性抗体 结构A (1st scFv-L1-Fc-L2-2nd scFv) (bispecific antibody, human IgG4 S228P, F234A L235A)
chain: DIQMTQSPSSLSASLGDRVTISCSASQGISNYLNWYQQKPDGTVKLLIYYTSTLHSGVPSRFSGSGSGTDYTLTISSLQPEDIATYYCQQYSKLPWTFGCGTKLEIKGGGGSGGGGSGGGGSGGGGSQVQLQESGPGLVKPSETLSLTCTVSGSSLTSYGVHWVRQPPGKCLEGLGVIWPGGSTNYNSALMSRVTISKDNSKSQVSLKMSSLTAADTAVYYCARVTGTWYFDVWGQGTTVTVSSGGGGSGGGGS[human IgG4 Fc with S228P F234A L235A (EU numbers) not shown]GGGSGGGGSGGGGSDIQMTQSPSTLSASVGDRVTITCQSSQNVYSNNRLSWYQQKPGKAPKLLIYWTSFLASGVPSRFSGSGSGTEFTLTISSLQPDDFATYYCAGGYSGNLYTFGCGTKLEIKGGGGSGGGGSGGGGSGGGGSDVQLVESGGGLVQPGGSLRLSCTVSGIDLSSYDMTWVRQAPGKCLEYIGYISYVSRTYYADSVKGRFTISKDTSKNTVYLQMNSLRAEDTAVYYCARDRPDGAATNLWGQGTLVTVSS
notes: Two identical chains: anti-CD137 scFv, (G4S)2, human IgG4 Fc, (G4S)3, anti-PD-L1 scFv; Expressed in Expi293 cells; also called A结构

Source: patent CN115677858A (HEFEI HANKEMAB BIOTECHNOLOGY CO LTD; ANHUI ANKE …, dated 2023)
